From PubChem BioAssay AID1347071 (National Center for Advancing Translational Sciences (NCATS), 2019)
Hit rate of the full screen: of about 410,000 compounds, about 260 (0.063%) were called active. The inconclusive results got no clear call from the source; some entries with a clear call stand among them for comparison. Calls come from the whole dose curve; as a rule, active = well fitted activation curve with a large enough effect; inconclusive = small, poorly fitted or top-dose-only effect; inactive = no such curve, though single readings can be large or run the other way. No potency is given beside an inconclusive call; the fits are too rough.
Potency is the fitted concentration of half-maximal effect; tags give direction and shape of the fitted curve.

Assay: qHTS for compounds that reverse cellular toxicity of Amyloid beta (A-beta) peptide in yeast: Primary Screen; note: nearly all actives have a fitted effect of over 55% in size
Conditions: yeast expressing A-beta42, growth rescue, OD600, 48 h; growth rescue: at 46.1 µM (top of the series), 0% DMSO, 100% iron-clioquinol control
Summary of the method: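 Growth rescue measured by 600 nm absorbance after 48 h yeast culture at 30 C with compound. Values normalized between DMSO and an equimolar ferric chloride plus clioquinol control.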
For Cc1cc(NC(=O)CSc2nnc(-c3ccc4c(c3)OCCO4)o2)no1, the Potency was inconclusive [activator, partial curve, poor fit]. In the case of CCOC(=O)C1=NN(C(=O)c2ccc(OC)cc2)C(O)(c2ccc(Cl)cc2)C1 (stereo unspecified), the Potency was inconclusive [activator, single point]. In the case of C(=N\n1cnnc1)/c1nc2ccccc2[nH]1, the Potency was “inactive”. With COc1ccc2cc(CCNC(=O)c3ccc(Br)o3)c(=O)[nH]c2c1 the Potency was inconclusive [activator, single point]. In the case of CCN1C(=O)CSC1=Nc1ccc(Cl)c(Cl)c1, the Potency was “inactive”. For COc1ccccc1N1CCN(S(=O)(=O)c2c(C)sc3ncn(CC(=O)Nc4ccc(C(C)C)cc4)c(=O)c23)CC1, the Potency was “inactive”. For COc1ccccc1OCCCCn1c(C2CC(=O)N(c3ccccc3Cl)C2)nc2ccccc21 (stereo unspecified), the Potency was “inactive”. With Cc1cccc(-c2nnc(NC(=O)c3ccc(Cl)cc3)o2)c1 the Potency was inconclusive [activator, full curve, poor fit]. In the case of Cc1cc(Cl)ccc1NC(=S)Nc1ccccn1, the Potency was inconclusive [activator, partial curve, poor fit]. With CCOc1ccc(CCNC(=O)c2c(C)oc3ncn(CC(C)C)c(=O)c23)cc1 the Potency was “inactive”. In the case of COc1cccc(CNc2ccc(F)c([N+](=O)[O-])c2)c1O, the Potency was inconclusive [activator, full curve, poor fit]. For CC1CCN(C(=O)c2ccccc2SCC(=O)NCC2CCCCC2)CC1, the Potency was “inactive”. With COc1cccc(OCc2cc(C(=O)N3CCN(c4ccccc4O)CC3)no2)c1 the Potency was inconclusive [activator, partial curve, poor fit]. In the case of COc1ccc(S(=O)(=O)Nc2cccc(S(=O)(=O)N3CCCCCC3)c2)cc1, the Potency was “inactive”. For Cc1cccc(C(=O)Nc2nnc(S(=O)(=O)N(C)Cc3ccc(Cl)cc3)s2)c1, the Potency was “inactive”. For CCOc1ccc(N/C(SC)=C(/C#N)C(N)=O)cc1, the Potency was inconclusive [activator, partial curve, poor fit]. In the case of OC(c1ccc(F)c(F)c1)c1nc(-c2cccc3cccnc23)cs1 (stereo unspecified), the Potency was inconclusive [activator, single point]. For Cc1nc2cc(C(=O)NCCC3=CCCCC3)ccc2n1-c1ccc(Br)cc1, the Potency was “inactive”. With O=C(COC(=O)c1cccc(OC(F)F)c1)Nc1cc(S(=O)(=O)N2CCCC2)ccc1Cl the Potency was inconclusive [activator, single point]. For COc1cc(CNC(=O)c2sc3ncccc3c2-n2cccc2)cc(OC)c1OC, the Potency was “inactive”. With O=C(Nc1ncc(Cc2cccc(Cl)c2)s1)c1cccs1 the Potency was inconclusive [activator, partial curve, poor fit]. In the case of CCOc1cc(C)c(Cl)cc1S(=O)(=O)n1cnc2ccccc21, the growth rescue was inconclusive: -33.7% [activator]. For CC1=CC(=O)C(C(C)=Nc2ccccc2[N+](=O)[O-])C(=O)O1 (stereo unspecified), the Potency was “inactive”. For O=C(Nc1ccccc1C(=O)NC1CC1)c1ccccc1, the Potency was inconclusive [activator, single point]. In the case of O=C(Oc1cccc2cccnc12)c1ccco1, the Potency was “inactive”. With Cc1ccc(CNC(=O)CN(C)S(=O)(=O)c2ccc3c(c2)c(=O)n(C)c(=O)n3C)cc1 the Potency was “inactive”. With O=C(Cn1cc2c(n1)CCCC2)Nc1cc(-c2cccc(Cl)c2)no1 the Potency was inconclusive [activator, full curve, poor fit]. For S=C1NC[C@H](CC2CCCCC2)N1CCc1cccc2ccccc12, the Potency was inconclusive [activator, single point]. In the case of O=C1c2ccccc2C(=O)C1c1ccnc2ccccc12, the Potency was “inactive”. For COCCNc1nc(N)c([N+](=O)[O-])c(NC2CCCCC2)n1, the Potency was inconclusive [activator, partial curve]. In the case of CC(/C=N/NC(=O)c1c(Br)cnn1C)=C\c1ccccc1, the Potency was inconclusive [activator, single point]. In the case of COc1ccc(Cl)cc1NC(=S)NC1CCCC1, the Potency was inconclusive [activator, single point]. For CCOc1ccc(NC(=O)c2c(NCc3cccnc3)sc3c2CCC(C)C3)cc1 (stereo unspecified), the Potency was “inactive”. With Cc1ccsc1/C=N/NC(=O)Cn1nc(C)c([N+](=O)[O-])c1C the Potency was inconclusive [activator, single point]. For CC(Cc1cccs1)NC(=S)Nc1ccc(Cl)c(Cl)c1 (stereo unspecified), the Potency was active: 11.2 µM. For CCc1c(C)[nH]c(=S)c(C#N)c1C, the Potency was inconclusive [activator, full curve]. In the case of Clc1ccc(Sc2ccccn2)cc1, the Potency was “inactive”. In the case of Cc1cccc(NC(=S)NCCc2ccc(Cl)cc2)c1C, the Potency was inconclusive [activator, full curve]. In the case of CCCc1nc2ccc(NC(C)=O)cc2c(=O)n1Cc1ccccc1Cl, the Potency was “inactive”. In the case of Fc1ccc(NC(=S)Nc2nccs2)cc1, the Potency was inconclusive [activator, partial curve]. With O=C(Nc1nnc(C2=COCCO2)o1)c1cccc(Br)c1 the Potency was inconclusive [activator, partial curve]. With O=C(Nc1c2c(nn1-c1ccc(F)cc1)CS(=O)(=O)C2)C12CC3CC(CC(C3)C1)C2 the Potency was inconclusive [activator, single point]. For COCCNC(=S)N(CCc1c(C)[nH]c2ccc(F)cc12)Cc1ccc(C)cc1, the growth rescue was inconclusive: 32.6% [activator]. With CCOc1ccc(NS(=O)(=O)c2ccc(NC(=S)NC(=O)CC(C)C)cc2)cc1 the Potency was inconclusive [activator, single point]. With CC1(C)CC(=O)c2cc(C(=O)NC3CCSC3=O)c(=O)n(-c3ccccc3)c2C1 (stereo unspecified) the Potency was “inactive”. For COc1cc(NC(=O)C2=C(N3CCOCC3)/C(=C/c3ccc(Cl)cc3)CC2)cc(OC)c1OC, the Potency was inconclusive [activator, partial curve]. For CN(CC(=O)Nc1ccc(Cl)c(Cl)c1)C(=O)CNC(=O)C1CCCCC1, the Potency was inconclusive [activator, single point]. In the case of O=C(NC(=S)N1CCN(c2ccc(O)cc2)CC1)c1cccs1, the Potency was inconclusive [activator, partial curve]. For CC(C)Oc1ccc(C(CC(=O)O)Cc2ccccc2)cc1 (stereo unspecified), the Potency was inconclusive [activator, partial curve, poor fit]. In the case of COCc1c(C(=O)N2CCN(c3ccc(C(F)(F)F)cn3)CC2)oc2ccccc12, the Potency was inconclusive [activator, partial curve, poor fit]. For c1ccc(-c2nc(-c3cccs3)[nH]c2-c2ccccc2)cc1, the Potency was “inactive”. In the case of O=C(Cn1cc2c(n1)CCCCC2)N1CCc2ccccc21, the Potency was inconclusive [activator, partial curve, poor fit]. In the case of CC(C)CC(=O)NC(=S)NNC(=O)c1ccc([N+](=O)[O-])cc1, the Potency was inconclusive [activator, partial curve, poor fit]. For CSc1ccccc1NC(=O)N1CCCC(C(=O)c2ccc3c(c2)OCO3)C1 (stereo unspecified), the Potency was “inactive”. For COc1ccccc1N1CCN(C(=O)C2CCN(C(=O)c3ccc(C(C)(C)C)cc3)CC2)CC1, the Potency was inconclusive [activator, single point]. With Clc1ccccc1N1CCN(Cc2c[nH]c3ccccc23)CC1 the Potency was inconclusive [activator, partial curve, poor fit]. With CN(CC(=O)Nc1ccc(Cl)c(C(F)(F)F)c1)C(=O)C1(c2ccccc2)CC1 the Potency was inconclusive [activator, partial curve, poor fit]. With CC1S/C(=N\N=C\c2cccc([N+](=O)[O-])c2)N(C(C)(C)C)C1=O (stereo unspecified) the Potency was inconclusive [activator, partial curve, poor fit]. In the case of CCOC(=O)c1c(N)sc2c1CCC(CC)C2 (stereo unspecified), the Potency was inconclusive [activator, partial curve, poor fit]. With Cc1nn(-c2ncc(C(F)(F)F)cc2Cl)c(=O)n1-c1ccccc1Cl the Potency was inconclusive [activator, full curve, poor fit]. For COc1ccc(CNC(=O)c2cc3cc4ccc(C)cc4nc3o2)cc1, the Potency was “inactive”. In the case of CC12CCC(C(=O)N(CSC(=S)N/N=C\c3ccccc3)C1=O)C2(C)C (stereo unspecified), the Potency was inconclusive [activator, full curve, poor fit]. In the case of Cc1ccc(NC(=S)NCCc2c[nH]c3ccccc23)c(C)c1, the Potency was inconclusive [activator, single point]. In the case of COc1ccc(CCC(=O)Nc2nc3ccccc3[nH]2)cc1, the Potency was “inactive”. For CCOC(=O)C1=CCC(c2ccccc2C(F)(F)F)N(S(=O)(=O)c2ccc(C)cc2)C1 (stereo unspecified), the Potency was “inactive”. In the case of CCOC(=O)c1c(NC(=O)CSc2cn(CCNC(=O)c3cccc(C(F)(F)F)c3)c3ccccc23)sc2c1CCC2, the Potency was “inactive”. In the case of Nc1nonc1C(=Nc1ccc(Br)cc1)NO, the Potency was inconclusive [activator, partial curve, poor fit]. In the case of O=C(NCCCNc1ccc(C(F)(F)F)cc1[N+](=O)[O-])c1cc(F)c(F)cc1Cl, the Potency was inconclusive [activator, single point]. With CC(C)c1ccc(NC(=O)CSC2=Nc3ccccc3C3=NC(CC(=O)NCc4cccs4)C(=O)N23)cc1 (stereo unspecified) the Potency was active: 12.6 µM. In the case of O=C(Nc1ccc(Br)cc1)c1cc(-c2cccs2)nc2ccccc12, the Potency was “inactive”. With Cc1ccc(Cn2c(C)c(C(=O)NCc3cccs3)sc2=O)cc1 the Potency was inconclusive [activator, partial curve, poor fit].
